Data taken from PMC12215836.
Results are given in words; binding and its absence hold for the method and conditions named. In cells and extracts the contact can be indirect. Some results given as binding are weak or reduced against the parent protein; the word gives no strength.

By UniProt entry, the sequences of proteins in these tests, tags left out.
UniProt O00327: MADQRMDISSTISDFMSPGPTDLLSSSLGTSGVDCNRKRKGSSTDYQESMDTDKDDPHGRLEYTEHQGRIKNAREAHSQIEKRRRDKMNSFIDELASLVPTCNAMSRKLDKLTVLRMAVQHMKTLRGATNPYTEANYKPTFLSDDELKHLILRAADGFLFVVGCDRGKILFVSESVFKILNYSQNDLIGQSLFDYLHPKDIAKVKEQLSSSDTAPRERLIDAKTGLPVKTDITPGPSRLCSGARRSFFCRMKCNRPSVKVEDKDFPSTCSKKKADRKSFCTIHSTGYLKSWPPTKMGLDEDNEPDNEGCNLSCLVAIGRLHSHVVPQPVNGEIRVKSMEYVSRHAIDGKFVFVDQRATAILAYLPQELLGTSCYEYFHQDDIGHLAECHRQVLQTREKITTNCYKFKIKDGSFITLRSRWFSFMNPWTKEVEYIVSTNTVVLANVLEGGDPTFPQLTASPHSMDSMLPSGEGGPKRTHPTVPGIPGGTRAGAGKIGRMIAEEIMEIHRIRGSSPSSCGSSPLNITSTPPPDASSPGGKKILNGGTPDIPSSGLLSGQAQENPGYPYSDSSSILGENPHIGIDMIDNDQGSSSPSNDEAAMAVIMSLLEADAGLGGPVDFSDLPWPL
UniProt P27540: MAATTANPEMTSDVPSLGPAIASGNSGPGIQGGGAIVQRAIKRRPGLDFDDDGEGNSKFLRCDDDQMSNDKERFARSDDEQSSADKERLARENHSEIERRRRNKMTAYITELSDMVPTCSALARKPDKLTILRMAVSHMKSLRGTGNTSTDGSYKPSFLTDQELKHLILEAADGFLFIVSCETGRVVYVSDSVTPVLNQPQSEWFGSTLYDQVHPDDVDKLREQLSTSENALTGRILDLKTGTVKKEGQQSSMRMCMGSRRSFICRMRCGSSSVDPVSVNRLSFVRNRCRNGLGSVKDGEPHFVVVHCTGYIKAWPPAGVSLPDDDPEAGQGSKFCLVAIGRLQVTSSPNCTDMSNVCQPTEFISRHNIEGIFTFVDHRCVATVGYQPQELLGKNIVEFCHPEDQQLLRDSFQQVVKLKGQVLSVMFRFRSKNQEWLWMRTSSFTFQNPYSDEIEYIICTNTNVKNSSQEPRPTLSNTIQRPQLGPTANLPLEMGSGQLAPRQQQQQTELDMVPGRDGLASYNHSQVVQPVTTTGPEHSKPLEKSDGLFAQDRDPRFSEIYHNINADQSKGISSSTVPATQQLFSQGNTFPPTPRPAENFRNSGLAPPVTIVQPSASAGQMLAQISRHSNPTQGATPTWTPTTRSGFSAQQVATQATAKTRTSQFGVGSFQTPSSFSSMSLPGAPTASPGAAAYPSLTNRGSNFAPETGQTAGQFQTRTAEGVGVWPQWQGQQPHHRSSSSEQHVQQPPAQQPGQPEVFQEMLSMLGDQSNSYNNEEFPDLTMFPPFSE

How the values were obtained:
BMAL1-FLAG = BMAL1-FLAG (UniProt O00327); assay: co-IP; 786O cells transfected with FLAG-tagged bHLH-PAS proteins; RIPA lysates, anti-Flag M2 agarose beads; endogenous HIF2α and CLOCK detected by immunoblot; cells at 3% O2 for 4 h or 21% O2 before lysis
ARNT-FLAG = ARNT-FLAG (UniProt P27540); assay: as above

binding (BMAL1-FLAG): binds | binding (ARNT-FLAG): no binding
B1: endogenous CLOCK (786O cells) (protein, UniProt O15516 1-846)
chain: MLFTVSCSKMSSIVDRDDSSIFDGLVEEDDKDKAKRVSRNKSEKKRRDQFNVLIKELGSMLPGNARKMDKSTVLQKSIDFLRKHKEITAQSDASEIRQDWKPTFLSNEEFTQLMLEALDGFFLAIMTDGSIIYVSESVTSLLEHLPSDLVDQSIFNFIPEGEHSEVYKILSTHLLESDSLTPEYLKSKNQLEFCCHMLRGTIDPKEPSTYEYVKFIGNFKSLNSVSSSAHNGFEGTIQRTHRPSYEDRVCFVATVRLATPQFIKEMCTVEEPNEEFTSRHSLEWKFLFLDHRAPPIIGYLPFEVLGTSGYDYYHVDDLENLAKCHEHLMQYGKGKSCYYRFLTKGQQWIWLQTHYYITYHQWNSRPEFIVCTHTVVSYAEVRAERRRELGIEESLPETAADKSQDSGSDNRINTVSLKEALERFDHSPTPSASSRSSRKSSHTAVSDPSSTPTKIPTDTSTPPRQHLPAHEKMVQRRSSFSSQSINSQSVGSSLTQPVMSQATNLPIPQGMSQFQFSAQLGAMQHLKDQLEQRTRMIEANIHRQQEELRKIQEQLQMVHGQGLQMFLQQSNPGLNFGSVQLSSGNSSNIQQLAPINMQGQVVPTNQIQSGMNTGHIGTTQHMIQQQTLQSTSTQSQQNVLSGHSQQTSLPSQTQSTLTAPLYNTMVISQPAAGSMVQIPSSMPQNSTQSAAVTTFTQDRQIRFSQGQQLVTKLVTAPVACGAVMVPSTMLMGQVVTAYPTFATQQQQSQTLSVTQQQQQQSSQEQQLTSVQQPSQAQLTQPPQQFLQTSRLLHGNPSTQLILSAAFPLQQSTFPQSHHQQHQSQQQQQLSRHRTDSLPDPSKVQPQ
